{"source": "PubChem BioAssay AID904", "about": "(National Center for Advancing Translational Sciences (NCATS), 2007)", "note": "Among all 55,000 compounds or so, about 530 (0.96%) were called active. The shares of active, inactive and inconclusive entries below differ from those in the screen. Calls follow the shape of the dose curve; as a rule, active = well fitted cell-killing curve with a large enough effect; inconclusive = small, poorly fitted or top-dose-only effect; inactive = no such curve, though single readings can be large or run the other way. Potencies beside an inconclusive call are fits to weak or partial responses and may not hold up. Potency is read from the fitted curve at half-maximal effect; tags tell the direction and shape of the fitted curve."}
{"test": "qHTS Screen for Compounds that Selectively Target Cancer Cells with p53 Mutations: Cytotoxicity of p53 Null Cells at the Nonpermissive Temperature; also: nearly all actives have a fitted effect of over 50% in size", "settings": "H1299 p53-null (neo) cells, 39C, ATPlite viability, 24 h; series mostly up to 46.1 µM", "summary_of_the_method": "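Luminescent ATP signal reported cell survival after H1299 lines (neo, p53 null; or p53 A138V) received up to 46 uM compound and 24 hr incubation at 39C.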"}
{"smiles": "CCOC(=O)C(C)Oc1cccc2c(=O)n(CC(=O)NCc3ccco3)ccc12", "note": "(stereo not given)", "Potency": "inconclusive: 6.31 µM [cytotoxic, full curve]"}
{"smiles": "Cc1ccc(-n2ncc3c(NCCc4ccccc4)ncnc32)cc1Cl", "Potency": "inactive"}
{"smiles": "CCOc1ccc(NC(=O)c2nc(S(=O)(=O)Cc3ccccc3F)ncc2Cl)cc1", "Potency": "inconclusive: 35.5 µM [cytotoxic, single point]"}
{"smiles": "Cc1c(NC(=O)c2cccs2)cccc1-c1nc2cc(Cl)ccc2o1", "Potency": "inconclusive: 8.91 µM [cytotoxic, partial curve]"}
{"smiles": "CCOC(=O)c1c(NC(=O)c2cc(-c3cccc(Cl)c3)on2)sc(C)c1C", "Potency": "inactive"}
{"smiles": "Cc1ccc(NC(=O)c2cc3c(s2)CCCC3)cc1S(=O)(=O)Nc1ccccc1Cl", "Potency": "inactive"}
{"smiles": "Cc1ccc(C)c(NC(=O)c2nc(S(=O)(=O)Cc3ccc(F)cc3)ncc2Cl)c1", "Potency": "inconclusive: 31.6 µM [cytotoxic, single point]"}
{"smiles": "CCc1ccc(CNC(=O)Cn2nc(C)c3nn(-c4ccc(Cl)cc4)c(C)c3c2=O)cc1", "Potency": "inconclusive: 5.01 µM [cytotoxic, full curve, poor fit]"}
{"smiles": "COc1ccc(NC(=O)c2ccc(NC(=O)CCS(=O)(=O)c3cccs3)cc2)cc1Cl", "Potency": "inconclusive: 25.1 µM [cytotoxic, partial curve]"}
{"smiles": "O=S(=O)(NCC(c1ccccc1)N1CCc2ccccc21)c1ccc(Cl)cc1", "note": "(stereo not given)", "Potency": "inconclusive: 15.8 µM [cytotoxic, single point]"}
{"smiles": "COc1ccc(CNC(=O)c2cc(-c3ccc(Br)s3)nc3ccccc23)cc1", "Potency": "inconclusive: 10 µM [cytotoxic, partial curve]"}
{"smiles": "CN1CCN(C(=O)c2ccc3c(c2)N(Cc2ccc(C(F)(F)F)cc2)C(=O)c2ccccc2S3)CC1", "Potency": "inconclusive: 35.5 µM [cytotoxic, single point]"}
{"smiles": "Oc1ccc(-c2nc3ccc(Cl)cn3c2Nc2ccc(Cl)cc2)cc1", "Potency": "inconclusive: 31.6 µM [cytotoxic, single point]"}
{"smiles": "Cc1cccc2nc(-c3ccccn3)c(Nc3ccc(F)cc3)n12", "Potency": "inconclusive: 6.31 µM [cytotoxic, full curve, poor fit]"}
{"smiles": "Cc1ccc2nc(SCc3nc(-c4ccc(Cl)cc4)no3)[nH]c2c1", "Potency": "inconclusive: 35.5 µM [cytotoxic, single point]"}
{"smiles": "CSc1ccccc1-c1nnc(NC(=O)c2ccc3c(c2)OCCO3)o1", "Potency": "inconclusive: 12.6 µM [cytotoxic, partial curve]"}
{"smiles": "CCOc1ccc(-c2cc3nc(C4CCN(C(=O)OC(C)(C)C)CC4)c(C(=O)Nc4c(C)cccc4C)cn3n2)cc1", "Potency": "inconclusive: 31.6 µM [cytotoxic, single point]"}
{"smiles": "O=C(Nc1cccc(C(F)(F)F)c1)c1cccc(C(=O)Nc2cccc(C(F)(F)F)c2)c1", "Potency": "inactive"}
{"smiles": "CCN1CCc2nc3sc(C(=O)Nc4cccc(Cl)c4C)c(N)c3cc2C1", "Potency": "inconclusive: 2 µM [cytotoxic, partial curve]"}
{"smiles": "CCC1=Nc2cc(C(=O)NCCCOC)ccc2Sc2ccc(Br)cc21", "Potency": "inconclusive: 2.24 µM [cytotoxic, partial curve, poor fit]"}
{"smiles": "COc1ccccc1NC(=O)N1CCC(c2nc3cc(C)c(C)cc3[nH]2)CC1", "Potency": "inconclusive: 11.2 µM [cytotoxic, partial curve]"}
{"smiles": "O=C(O)c1cc(-c2ccc(C(F)(F)F)cc2)nc2n[nH]c(-c3ccccc3)c12", "Potency": "active: 15.8 µM"}
{"smiles": "Cc1ccc(OCC(O)Cn2c(=N)n(CCN3CCCCC3)c3ccccc32)cc1", "note": "(stereo not given)", "Potency": "active: 12.6 µM"}
{"smiles": "CCN1CCN(c2cc(C)c3cc(NC(=O)c4cc(Cl)ccc4OC)ccc3n2)CC1", "Potency": "inconclusive: 31.6 µM [cytotoxic, single point]"}
{"smiles": "COc1ccccc1N1CCN(C(=O)Cn2ncc3c(=O)oc4ccc(C)cc4c32)CC1", "Potency": "inconclusive: 0.01 µM [cytotoxic, full curve, poor fit]"}
{"smiles": "COc1cccc(CN(C(=O)c2cccc(C)c2)C2CCS(=O)(=O)C2)c1", "note": "(stereo not given)", "Potency": "inconclusive: 3.98 µM [cytotoxic, single point]"}
{"smiles": "COc1ccc(NC(=O)c2ccc(NC(=O)CCS(=O)(=O)c3cccs3)cc2)cc1", "Potency": "inconclusive: 0.501 µM [cytotoxic, single point]"}
{"smiles": "Cn1c(=O)n(C)c2cc(NS(=O)(=O)c3ccccc3)c(NCc3ccccc3)cc21", "Potency": "inconclusive: 3.98 µM [cytotoxic, full curve]"}
{"smiles": "COc1cccc(NC(=O)Nc2cc(-c3cn4cccnc4n3)ccc2C)c1", "Potency": "inconclusive: 3.16 µM [cytotoxic, partial curve, poor fit]"}
{"smiles": "O=C(Nc1cccc(Cl)c1)c1c(NC(=O)C(F)(F)F)sc2c1CCCC2", "Potency": "inconclusive: 5.01 µM [cytotoxic, full curve]"}
{"smiles": "CCCCOc1c(Cl)cc(C(=O)N(Cc2ccc(C)o2)C2CCS(=O)(=O)C2)cc1Cl", "note": "(stereo not given)", "Potency": "inconclusive: 20 µM [cytotoxic, single point]"}
{"smiles": "Cc1cccc2nc(-c3cccnc3)c(Nc3ccc(C(C)C)cc3)n12", "Potency": "inconclusive: 11.2 µM [cytotoxic, partial curve]"}
{"smiles": "COc1ccc(NC(=O)c2cnn(-c3ccc(C)cc3)c2-n2cccc2)cc1Cl", "Potency": "inactive"}
{"smiles": "Cc1cccc(Nc2nnc(-n3nc(C)cc3C)c3ccccc23)c1", "Potency": "inconclusive: 1 µM [cytotoxic, full curve]"}
{"smiles": "CCOC(=O)C1C(=O)CC(C)(O)C(C(=O)OCC)C1c1ccccc1", "note": "(stereo not given)", "Potency": "inconclusive: 12.6 µM [cytotoxic, partial curve, poor fit]"}
{"smiles": "Cc1cccc(C)c1Nc1c(-c2ccsc2)nc2ccccn12", "Potency": "inconclusive: 31.6 µM [cytotoxic, single point]"}
{"smiles": "Cc1ccc(NC(=O)c2sc3ccccc3c2Cl)cc1", "Potency": "inconclusive: 20 µM [cytotoxic, single point]"}
{"smiles": "O=C(Nc1ccc(N2CCC(N3CCCCC3)CC2)c(C(=O)O)c1)c1ccc(Br)cc1", "Potency": "inactive"}
{"smiles": "CCC(=O)NC(c1ccccc1OC)c1ccc2cccnc2c1O", "note": "(stereo not given)", "Potency": "inconclusive: 8.91 µM [cytotoxic, partial curve]"}
{"smiles": "CCCOc1ccc(C(=O)Nc2cccc(-c3nc4ccccc4[nH]3)c2)cc1", "Potency": "inconclusive: 15.8 µM [cytotoxic, single point]"}
